According to PMC6919601, “Identification of Plasmodium dipeptidyl aminopeptidase allosteric inhibitors by high throughput screening” (PLoS ONE, 2019):
Values joined by “and” are separate entries in the source; they are usually repeats but may differ in a detail not shown here. Equal entries are not always repeated. Among all 110,000 compounds or so, about 230 (0.21%) showed an effect of 50% or more. The list shows a part of the results.

What follows are compounds tested against DPAP1 (Plasmodium falciparum, UniProt Q8IIJ9) (assay: primary screen, percent inhibition; read by cleavage of a fluorogenic dipeptide substrate; higher = more effect of the substance).
DPAP1, sequence (Q8IIJ9 whole entry, looked up): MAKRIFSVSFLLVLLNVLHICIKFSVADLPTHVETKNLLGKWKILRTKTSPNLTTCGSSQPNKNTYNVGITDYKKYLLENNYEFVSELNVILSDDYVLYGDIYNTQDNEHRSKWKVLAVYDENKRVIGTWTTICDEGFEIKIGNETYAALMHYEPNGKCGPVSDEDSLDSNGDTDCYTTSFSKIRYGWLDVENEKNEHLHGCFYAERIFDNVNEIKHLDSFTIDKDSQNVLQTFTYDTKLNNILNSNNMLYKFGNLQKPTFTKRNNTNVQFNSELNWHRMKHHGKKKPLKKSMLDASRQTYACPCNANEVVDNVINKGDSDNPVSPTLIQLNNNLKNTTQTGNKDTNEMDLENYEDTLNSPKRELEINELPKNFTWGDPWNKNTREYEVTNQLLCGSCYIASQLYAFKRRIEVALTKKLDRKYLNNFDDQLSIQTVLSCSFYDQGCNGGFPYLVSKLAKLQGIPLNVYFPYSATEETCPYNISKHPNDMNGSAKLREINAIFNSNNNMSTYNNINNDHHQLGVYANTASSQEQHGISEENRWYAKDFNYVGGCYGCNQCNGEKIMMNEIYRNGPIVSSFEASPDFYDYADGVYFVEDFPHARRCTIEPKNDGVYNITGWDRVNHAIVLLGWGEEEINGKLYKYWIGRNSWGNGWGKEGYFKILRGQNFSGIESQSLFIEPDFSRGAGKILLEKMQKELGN
Design: species or system P. falciparum D10 trophozoite lysates; single well
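Also: 30 min substrate incubation versus DMSO and 10 µM JCP410 controls.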

| Structure (SMILES) | % Inhibition @ 10 uM |
| --- | --- |
| CC1=C(c2ccc(Cl)cc2)S(=O)(=O)N=C1N1CCC(Cc2ccccc2)CC1 | -2.85% |
| Cn1ccc(C#CC(=O)c2ccccc2)n1 | 4.63% |
| O=C(c1cc(-c2cccs2)nc2ccccc12)N1N=C(C(F)F)CC1(O)C(F)F (centres unmarked) | -7.01% |
| O=C(NCCC(c1ccccc1)c1ccccc1)c1cccnc1Cl | -0.865% |
| Clc1cccc(-n2ncc3c(NCc4cccnc4)ncnc32)c1 | -1.62% |
| CCCCN1C(=O)CC(Sc2ncccc2C(=O)O)C1=O (centres unmarked) | 5.7% |
| CC1=C(c2ccc(C)c(C)c2)S(=O)(=O)N(Cc2ccc(C(=O)N3CCC(C(N)=O)CC3)cc2)C1=O | 5.46% |
| CCn1cc(C=C2C(=O)NC(=S)NC2=O)c2ccccc21 | 9.57% |
| N#CC1=C(N)Oc2cc(N)ccc2C1c1ccc(Br)cc1 (centres unmarked) | -0.261% |
| CN(CCCNC(=O)c1cn(C2CCCC2)c(=O)c2c1c1ccccc1n2C)Cc1ccccc1 | -3.39% |
| Cc1ccc(N2CC(C(=O)Nc3ccc(Cl)cc3F)CC2=O)cc1 (centres unmarked) | -1.04% |
| Cc1cc(O)c(C2=NCCSC(c3ccccc3Br)C2)c(=O)o1 (centres unmarked) | 2.6% |
| C=CCNC(=O)c1c(C)cc(C)cc1C | 2.92% |
| CC(C)Sc1nc2c(c(=O)[nH]c(=O)n2C)n1Cc1ccc(Cl)cc1 | -4.49% |
| CCOc1cccc2cc(-c3cn4c(n3)sc3cc(OC)ccc34)c(=O)oc12 | -2.92% |
| CCCCC(C(=O)Nc1ccc(OC)cc1)N1C(=O)c2ccccc2C1=O (centres unmarked) | -1.07% |
| Cc1cc2ncn(C(=O)CCCOc3ccccc3)c2cc1C | 5.3% |
| CCOc1ccc(NC(=O)CSc2nc(O)cc(C(F)(F)F)n2)cc1 | -2.68% |
| CC(C)(C)c1cc(O)c2oc(=O)c(C(=O)O)cc2c1 | 6.07% |
| O=C(NCCN1CCCC1)c1ccc(Cn2c(SCc3ccc(F)cc3)nc3ccncc32)cc1 | 4.53% |
| Cc1cc(-c2ccc(S(=O)(=O)NC(C)(C)C)s2)on1 | -0.342% |
| CCCCNC(=O)c1ccc(CN2CCOCC2)cc1 | -6.43% |
| CCCCC(NC(=O)C(CCCC)NC(=O)OCc1ccccc1)C(=O)CO (centres unmarked) | -7.36% |
| Cc1ccccc1N1C(=O)c2ccccc2NC1c1ccc2c(c1)OCO2 (centres unmarked) | -2.67% |
| COc1ccc(C2C(C#N)=C(N)OC3=C2C(=O)CC(C)(C)C3)cc1COc1ccc(Cl)cc1 (centres unmarked) | -0.661% |

| Structure (SMILES) | % Inhibition @ 10 uM |
| --- | --- |
| COc1ccc(C(=O)Nc2ccc(N(C)C(C)=O)cc2)cc1 | -1.96% |
| CC1CCCN(CCCNC(=O)CN2N=C(c3ccccc3)CCC2=O)C1 (centres unmarked) | 3.79% |
| CC(C)(C)C1CCc2c(sc(NC(=O)COc3ccccc3)c2C(N)=O)C1 (centres unmarked) | 0.161% |
| CCOC(=O)N1CCN(C(=O)CS(=O)(=O)Cc2nc(-c3ccccc3F)oc2C)CC1 | -1.89% |
| Cc1ccc(OC(C)C(=O)Nc2ccccc2)cc1 (centres unmarked) | -0.95% |
| O=[N+]([O-])c1cc2c(cc1CC1CC1(Cl)Cl)OCCO2 (centres unmarked) | -0.736% |
| COc1ccc(N2CCN(C(=O)c3ccccc3N)CC2)cc1 | -6.43% |
| Cc1ccc2oc(=O)n(CCOc3ccccc3Cl)c2c1 | -12.5% |
| Cc1c(CN(C)C(=O)c2cc3nc(-c4ccc(Cl)cc4)cc(C(F)(F)F)n3n2)cnn1C | 5.52% |
| Cc1nn(C)cc1CN(C)C(=O)c1cc2nc(-c3cccs3)cc(C(F)(F)F)n2n1 | 0.163% |
| CC(C)Oc1ccc(CNC(=O)Cn2ncc3ccc(Cl)cc32)cc1 | 5.39% |
| O=C(Nc1cc(Cl)cc(Cl)c1)C1CCCN1S(=O)(=O)c1ccc(Cl)cc1 (centres unmarked) | -2.44% |
| CCCCNC(=O)c1sc2nc(-c3ccccc3)cn2c1C | -5.58% |
| CCOC(=O)C1=C(NC(=O)c2ccc(C)cc2)S/C(=C\c2ccc(OC)c(Cl)c2)C1=O | 1.52% |
| Cc1ccc(C2=NS(=O)(=O)N(C)C(C(=O)NCc3cccnc3)=C2)cc1 | 0.655% |
| N#CC1=C(N)OC2=C(C(=O)CCC2)C1c1ccoc1 (centres unmarked) | -2.51% |
| O=C(COc1ccc(Br)cc1Cl)N1CCN(c2ccccc2F)CC1 | -1.63% |
| COc1ccc(CCNC(=O)c2cc(=O)c3cc(C)ccc3o2)cc1OC | 0.248% |
| CCCN1CCC(NC2CCCc3ccccc32)CC1 (centres unmarked) | -2.34% |
| CC(C)n1c(N2CCNCC2)nc2c1c(=O)n(C)c(=O)n2C | -3.86% |
| O=C(NC12CC3CC(CC(C3)C1)C2)C1CCCO1 (centres unmarked) | 1.57% |
| O=C(N/C(=C/c1cccs1)C(=O)N1CC2CC(C1)c1cccc(=O)n1C2)c1ccccc1 (centres unmarked) | 14.5% |
| O=C(NCc1ccc(C(=O)N2CCC3(CC2)OCCO3)cc1)c1cccc(Br)c1 | -0.406% |
| COc1cc2oc(=O)c(CC(=O)N3CCOCC3)c(C)c2cc1Cl | 7.17% |
| CC1(C)CC(=O)C2=C(C1)N(c1nc[nH]n1)C(N)=C(C#N)C2c1ccccc1 (centres unmarked) | -1.93% |

| Structure (SMILES) | % Inhibition @ 10 uM |
| --- | --- |
| COc1ccc(CCNC(=O)C2CCCN2c2nn3c(=O)cc(C)nc3s2)cc1OC (centres unmarked) | 1.38% |
| COC(=O)/C(=C/C(C#N)=C/N(C)C)C(C)=O | -3.15% |
| O=C(Nc1ccc(Cl)c(Cl)c1)c1cccc(Br)c1 | -0.197% |
| C=CCC(Nc1ccccc1)c1ccco1 (centres unmarked) | -3.14% |
| Cc1cccc(C)c1-n1ncc(C(=O)NCCc2ccsc2)c1C1CCNCC1 | -0.884% |
| COCCCN1CC(=O)C(c2nc3ccccc3[nH]2)=C1N | 6.78% |
| O=C1CSC2(C(=O)Nc3ccccc32)N1c1cccc(C(F)(F)F)c1 (centres unmarked) | -2.24% |
| Cc1ccc2oc(O)c(C(=O)CC3CCCC3)c(=O)c2c1 | -8.78% |
| COc1ccc2c(c1)c1c(c(=O)n(Cc3ccccc3)c(=O)n1CC(=O)NCc1ccco1)n2C | 1.02% |
| Cc1ccccc1S(=O)(=O)Cc1ccc(C(=O)NCc2ccc(Cl)cc2)o1 | 1.93% |
| COc1ccc(-n2cccc2/C=C2\C(=N)N3N=C(C(C)C)SC3=NC2=O)cc1 | 0.208% |
| Nc1cc(-c2ccc(Br)cc2)[nH]n1 | 3.96% |
| O=C(O)c1ccc(CN2CCc3ccccc3C2)cc1 | 0.847% |
| Cn1nnnc1SCCNCc1cc(Cl)ccc1OCc1ccccc1F | -0.204% |
| COc1ccc(NS(=O)(=O)c2ccc(F)cc2)c(OC)c1 | 0.658% |
| Cc1ccc2onc(CNC(=O)N3CCN(C(=O)c4ccco4)CC3)c2c1 | 5.55% |
| Cc1c(CCC(C)C)c(=O)oc2cc(OCC(N)=O)ccc12 | -2.21% |
| CCN1CCN(Cc2cccc(C(F)(F)F)c2)CC1 | 1.63% |
| CN1CCN(CC#CC2(O)CCCCC2)CC1 | 3.44% |
| CCN(CC)CCCNC(=O)c1cc2c(=O)oc3ccc(C)cc3c2s1 | -0.646% |
| Cc1[nH]c2ccccc2c1CCNC(=O)c1ccccc1F | -5.23% |
| O=C(NC1=C(C(=O)c2ccccc2)N(Cc2ccccc2)S(=O)(=O)c2ccccc21)c1ccccc1 | -5.1% |
| CC(=O)N1CCC2(CC1)OC(=O)C(C)=C2C(=O)N1CCN(C)CC1 | -1.86% |
| Cc1c(-c2nc(-c3ccc4c(c3)OCO4)no2)nnn1-c1ccccc1C(F)(F)F | 8.59% |
| CC(NC(=O)C12CC3(C)CC(C)(CC(C)(C3)C1)C2)C(=O)O (centres unmarked) | -2.45% |

| Structure (SMILES) | % Inhibition @ 10 uM |
| --- | --- |
| COc1cc2ncc(S(=O)(=O)c3ccccc3)c(NCc3ccc(C)cc3)c2cc1OC | -2.34% |
| CCCCCCNCc1c(F)cccc1Cl | 0.658% |
| COc1ccc(CNC(=O)CCn2ccc3cc(S(=O)(=O)N4CCCC4)ccc32)cc1 | 3.99% |
| Cc1ccc2sc(N(CCN(C)C)C(=O)c3ccco3)nc2c1C | 2.22% |
| COc1cccc(C2c3c(oc4cc(C)c(C)cc4c3=O)C(=O)N2c2ccccn2)c1 (centres unmarked) | -3.13% |
| O=C(Nc1ccc(CN2CCCCC2)cc1)c1cc2ccccc2o1 | -2.29% |
| O=C1/C(=C/c2ccc(F)cc2)CS/C1=C\c1ccc(F)cc1 | 1.76% |
| CC(C)(C)Oc1ncc(-c2cccs2)c(OC(C)(C)C)n1 | 0.0265% |
| COCC1=Nc2ncnn2C(c2ccc(Cl)cc2)/C1=C(/O)OC (centres unmarked) | -1.62% |
| COc1ccc(Br)cc1CNC(=O)Cn1c(=O)cc(C(F)(F)F)c2c(C)nn(C)c21 | -0.298% |
| COc1cccc(C2CC(=O)N=C(NC(=O)c3cccnc3)N2)c1OC (centres unmarked) | -4.76% |
| COc1ccc(Cl)cc1-n1cc(-c2ccccc2)nc1SCC(=O)Nc1nccs1 | 2.24% |
| N#CCNC(=O)[C@@H]1CCCC[C@@H]1CSc1nc2ccccc2o1 | -4.72% |
| CC(C)c1ccc(OCC(=O)Nc2ccc(S(N)(=O)=O)cc2)cc1 | -1.82% |
| O=C(c1cnn2c1NC(c1ccc(Br)cc1)CC2C(F)(F)F)N1CCCCC1 (centres unmarked) | -2.19% |
| N#CCNC(=O)[C@@H](CSCC1c2ccccc2-c2ccccc21)NC(=O)OCc1ccccc1 | -2.02% |
| CC(NC(=O)C1CCN(c2ncnc3c2nc2n3CCCCC2)CC1)c1ccccc1 (centres unmarked) | 2.59% |
| c1nc(NC2CCCCC2)c2nc3n(c2n1)CCCCC3 | 4.68% |
| CSc1ccc(/C=C2/NC(=O)N(Cc3ccc(F)cc3)C2=O)cc1 | -0.105% |
| O=C(C(c1ccccc1)N1Cc2ccccc2C1=O)N1CC=C(c2ccccc2)CC1 (centres unmarked) | 10.6% |
| O=C(c1cccc(C(=O)N2CCN(c3ccccc3)CC2)c1)N1CCN(c2ccccc2)CC1 | 1.87% |
| Cc1nc(Nc2ccccn2)sc1-c1ccccc1 | -4.42% |
| COc1ccc2[nH]c(-c3ccccc3)nc2c1 | -7.87% and -0.216% |
